This sample is rich in variants without activity.
B1: TPR 5TU (parent)
chain: GGAUCUUCUCGAUCUAACAAAAAAGACAAAUCUGCCACAAAGCUUGAGAGCAUCUUCGGAUGCAGAGGCGGCAGCCUUCGGUGGCGCGAUAGCGCCAACGUUCUCAACUAUGACACGCAAAACGCGUGCUCCGUUGAAUGGAGUUUAUCAUG

Variants of: B1
Experiment: polymerase ribozyme fitness, log enrichment relative to wild type (log ratio); higher = more active; in vitro selection for triplet polymerase activity
Method in brief: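 Streptavidin-bead capture of gel-excised extended constructs, followed by RT-PCR, closed a single triplicate in vitro selection round. That round began by annealing PCR-built, transcribed mutant libraries of each subunit of a heterodimeric triplet polymerase ribozyme with a biotinylated primer, the partner subunit and triplets, then incubating them frozen at −7 °C. After Illumina sequencing of inputs and outputs, genotypes needed ≥10 input reads and ≥1 read per output. Fitness is the base-2 logarithm of genotype enrichment over wild-type enrichment, using inverse-variance-weighted replicate averages.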

Question: For U13G A20U A22G A28C C85G, which “polymerase ribozyme fitness (log ratio)” value is on record?
Answer: ≤ -4.2

Question: With U13G A20U C43A C116A C118U C125U G140C as the variant, how does the “polymerase ribozyme fitness (log ratio)” value read?
Answer: ≤ -4.2

Question: With U13G A20U C57A G74U U148G as the variant, how does the “polymerase ribozyme fitness (log ratio)” value read?
Answer: ≤ -4.2

Question: Which “polymerase ribozyme fitness (log ratio)” value does the source give for U13G A20U G46C A52G U78A C85G U148A here?
Answer: ≤ -4.2

Question: Which “polymerase ribozyme fitness (log ratio)” value does the source give for U13G A21C C27A U55A C99A C103G here?
Answer: ≤ -4.2

Question: Which “polymerase ribozyme fitness (log ratio)” value does the source give for U13G A21C C54G C75A U82A A119U C131G here?
Answer: ≤ -4.2

Question: Which “polymerase ribozyme fitness (log ratio)” value does the source give for U13G A21U C43A U55A G58U C87G G143U here?
Answer: ≤ -4.2

Question: Which “polymerase ribozyme fitness (log ratio)” value does the source give for U13G A22G A24U A28G C76U U78A C79G G81A U102G C114A here?
Answer: ≤ -4.2

Question: With U13G A22G C38U A39U A40U C93U as the variant, how does the “polymerase ribozyme fitness (log ratio)” value read?
Answer: ≤ -4.2

Question: For U13G A23C U53A U82G G83A U104A A137C, which “polymerase ribozyme fitness (log ratio)” value is on record?
Answer: ≤ -4.2

Question: Which “polymerase ribozyme fitness (log ratio)” value does the source give for U13G A23G A66C C75G A98U C114U here?
Answer: ≤ -4.2

Question: With U13G A23U A28U G94A as the variant, how does the “polymerase ribozyme fitness (log ratio)” value read?
Answer: ≤ -4.2

Question: With U13G A23U A29G C36G A41C as the variant, how does the “polymerase ribozyme fitness (log ratio)” value read?
Answer: ≤ -4.2

Question: For U13G A23U U53C U144C, which “polymerase ribozyme fitness (log ratio)” value is on record?
Answer: ≤ -4.2

Question: Which “polymerase ribozyme fitness (log ratio)” value does the source give for U13G A24C A26G G50A C76U C123U here?
Answer: ≤ -4.2

Question: Which “polymerase ribozyme fitness (log ratio)” value does the source give for U13G A24C C76U C87G C123U U139A here?
Answer: ≤ -4.2

Question: With U13G A24U G58U G74C C95U U127A C129U as the variant, how does the “polymerase ribozyme fitness (log ratio)” value read?
Answer: ≤ -4.2

Question: Which “polymerase ribozyme fitness (log ratio)” value does the source give for U13G A24U U33G U53A U55A G84U here?
Answer: ≤ -4.2

Question: Which “polymerase ribozyme fitness (log ratio)” value does the source give for U13G A24U U56A G59A A66G U146G here?
Answer: ≤ -4.2

Question: With U13G A26U A91G C108U as the variant, how does the “polymerase ribozyme fitness (log ratio)” value read?
Answer: ≤ -4.2

Question: With U13G A28C C57A G83U G128A as the variant, how does the “polymerase ribozyme fitness (log ratio)” value read?
Answer: ≤ -4.2

Question: For U13G A28C G83A C114A G140C A142C, which “polymerase ribozyme fitness (log ratio)” value is on record?
Answer: ≤ -4.2

Question: For U13G A29C G58A A106C U144C, which “polymerase ribozyme fitness (log ratio)” value is on record?
Answer: ≤ -4.2

Question: For U13G A29G A89U U104G A106C A113U, which “polymerase ribozyme fitness (log ratio)” value is on record?
Answer: ≤ -4.2

Question: With U13G A29U C75A U77G C93U as the variant, how does the “polymerase ribozyme fitness (log ratio)” value read?
Answer: ≤ -4.2

Question: Which “polymerase ribozyme fitness (log ratio)” value does the source give for U13G A29U G65C A66G G88A A91C C103G A110C C132U here?
Answer: ≤ -4.2

Question: With U13G A30C C85A as the variant, how does the “polymerase ribozyme fitness (log ratio)” value read?
Answer: ≤ -4.2

Question: With U13G A30U C87U C105G A115G G143U as the variant, how does the “polymerase ribozyme fitness (log ratio)” value read?
Answer: ≤ -4.2

Question: With U13G A30U G67A A73U U90C as the variant, how does the “polymerase ribozyme fitness (log ratio)” value read?
Answer: ≤ -4.2

Question: Which “polymerase ribozyme fitness (log ratio)” value does the source give for U13G A30U U33A G48C C51U U53C G92C C105U C114A A120G here?
Answer: ≤ -4.2

Question: For U13G A37G G59A A60G U90A C93G U139C G141U G143A, which “polymerase ribozyme fitness (log ratio)” value is on record?
Answer: ≤ -4.2

Question: For U13G A37U U55A C57A C76U G86A U127C, which “polymerase ribozyme fitness (log ratio)” value is on record?
Answer: ≤ -4.2

Question: Which “polymerase ribozyme fitness (log ratio)” value does the source give for U13G A39C A89C A97G C114A C123U G141C here?
Answer: ≤ -4.2

Question: Which “polymerase ribozyme fitness (log ratio)” value does the source give for U13G A39C G42A A49G U55A A60U U61G A64G A107U A115U A121U U135A here?
Answer: ≤ -4.2

Question: Which “polymerase ribozyme fitness (log ratio)” value does the source give for U13G A39C G62A A107U U139A A142U here?
Answer: ≤ -4.2

Question: For U13G A40U G74A C87A G94C, which “polymerase ribozyme fitness (log ratio)” value is on record?
Answer: ≤ -4.2

Question: For U13G A40U U45G U56A C72U C87G U130G, which “polymerase ribozyme fitness (log ratio)” value is on record?
Answer: ≤ -4.2

Question: With U13G A41C C93A as the variant, how does the “polymerase ribozyme fitness (log ratio)” value read?
Answer: ≤ -4.2

Question: With U13G A47C G50U C69G G71C C95G A115G C132A as the variant, how does the “polymerase ribozyme fitness (log ratio)” value read?
Answer: ≤ -4.2

Question: For U13G A47C G67C U78G C93A C99G U104G A110G G112A G133U, which “polymerase ribozyme fitness (log ratio)” value is on record?
Answer: ≤ -4.2

Question: Which “polymerase ribozyme fitness (log ratio)” value does the source give for U13G A49U A60G C75U C76A C85G A91G here?
Answer: ≤ -4.2

Question: Which “polymerase ribozyme fitness (log ratio)” value does the source give for U13G A60C C85G C116U here?
Answer: ≤ -4.2

Question: For U13G A60U C63U G84A G86U A120C, which “polymerase ribozyme fitness (log ratio)” value is on record?
Answer: ≤ -4.2

Question: Which “polymerase ribozyme fitness (log ratio)” value does the source give for U13G A91U here?
Answer: ≤ -4.2

Question: Which “polymerase ribozyme fitness (log ratio)” value does the source give for U13G C14A A19G C51U G71C G83C G92C C125G here?
Answer: ≤ -4.2

Question: Which “polymerase ribozyme fitness (log ratio)” value does the source give for U13G C14G A20U A37G A47C A49U C99U C149U here?
Answer: ≤ -4.2

Question: Which “polymerase ribozyme fitness (log ratio)” value does the source give for U13G C14U A16G G59A U90G here?
Answer: -4.01

Question: For U13G C14U A17G C93A A98C, which “polymerase ribozyme fitness (log ratio)” value is on record?
Answer: ≤ -4.2

Question: For U13G C18A A21C A40G A41C G58U C69U C79G G92C, which “polymerase ribozyme fitness (log ratio)” value is on record?
Answer: ≤ -4.2

Question: Which “polymerase ribozyme fitness (log ratio)” value does the source give for U13G C18U A30C U45A C54U G68A C99A G128U here?
Answer: ≤ -4.2

Question: For U13G C27A U44C C76U C93U G136A, which “polymerase ribozyme fitness (log ratio)” value is on record?
Answer: ≤ -4.2

Question: With U13G C27G A39C U90G C95U as the variant, how does the “polymerase ribozyme fitness (log ratio)” value read?
Answer: ≤ -4.2

Question: With U13G C27G C51A G84C A142G A147C as the variant, how does the “polymerase ribozyme fitness (log ratio)” value read?
Answer: ≤ -4.2

Question: For U13G C27G U44A A47U G86A C99A U104C A142C, which “polymerase ribozyme fitness (log ratio)” value is on record?
Answer: ≤ -4.2

Question: For U13G C32G G50A G80A G88A G128A U146A, which “polymerase ribozyme fitness (log ratio)” value is on record?
Answer: ≤ -4.2

Question: With U13G C36G A41U G50A G83A G86U C95U A113U as the variant, how does the “polymerase ribozyme fitness (log ratio)” value read?
Answer: ≤ -4.2

Question: For U13G C36G C57U C87U U90G A110C A115U G124C C149G, which “polymerase ribozyme fitness (log ratio)” value is on record?
Answer: ≤ -4.2

Question: With U13G C36G U45G A66U G94U A121C U127A as the variant, how does the “polymerase ribozyme fitness (log ratio)” value read?
Answer: ≤ -4.2

Question: With U13G C36U A91U C99A as the variant, how does the “polymerase ribozyme fitness (log ratio)” value read?
Answer: ≤ -4.2

Question: Which “polymerase ribozyme fitness (log ratio)” value does the source give for U13G C36U C43U U53G C96U C105A U146A here?
Answer: ≤ -4.2

Question: For U13G C38U A41C C54A U61G C87A G100C G143U, which “polymerase ribozyme fitness (log ratio)” value is on record?
Answer: ≤ -4.2

Question: Which “polymerase ribozyme fitness (log ratio)” value does the source give for U13G C38U G88A U101A G124U here?
Answer: ≤ -4.2

Question: Which “polymerase ribozyme fitness (log ratio)” value does the source give for U13G C43A C79U here?
Answer: ≤ -4.2

Question: Which “polymerase ribozyme fitness (log ratio)” value does the source give for U13G C54A C95A A113C U139G U151G here?
Answer: ≤ -4.2

Question: Which “polymerase ribozyme fitness (log ratio)” value does the source give for U13G C54A G58C here?
Answer: ≤ -4.2

Question: For U13G C76A C96U C131U U148G, which “polymerase ribozyme fitness (log ratio)” value is on record?
Answer: ≤ -4.2

Question: Which “polymerase ribozyme fitness (log ratio)” value does the source give for U13G C79A C103U here?
Answer: ≤ -4.2

Question: For U13G C85U A106G G126U G140C, which “polymerase ribozyme fitness (log ratio)” value is on record?
Answer: -3.96

Question: Which “polymerase ribozyme fitness (log ratio)” value does the source give for U13G C108U here?
Answer: ≤ -4.2

Question: With U13G G25A G83A as the variant, how does the “polymerase ribozyme fitness (log ratio)” value read?
Answer: -4.07

Question: With U13G G34A G86A U101C C103U U127C as the variant, how does the “polymerase ribozyme fitness (log ratio)” value read?
Answer: ≤ -4.2

Question: Which “polymerase ribozyme fitness (log ratio)” value does the source give for U13G G46A G62C C93A here?
Answer: ≤ -4.2

Question: With U13G G46U C93U U135G U148C as the variant, how does the “polymerase ribozyme fitness (log ratio)” value read?
Answer: ≤ -4.2

Question: Which “polymerase ribozyme fitness (log ratio)” value does the source give for U13G G50U C93U here?
Answer: -3.9

Question: For U13G G58C A60U C76U U139G U145A, which “polymerase ribozyme fitness (log ratio)” value is on record?
Answer: ≤ -4.2

Question: Which “polymerase ribozyme fitness (log ratio)” value does the source give for U13G G59U C96U here?
Answer: -0.998

Question: For U13G G71A C116U, which “polymerase ribozyme fitness (log ratio)” value is on record?
Answer: ≤ -4.2

Question: With U13G G71U U77G C79U as the variant, how does the “polymerase ribozyme fitness (log ratio)” value read?
Answer: ≤ -4.2

Question: For U13G G83C U101G G133U, which “polymerase ribozyme fitness (log ratio)” value is on record?
Answer: ≤ -4.2

Question: For U13G G86U, which “polymerase ribozyme fitness (log ratio)” value is on record?
Answer: -3.56

Question: With U13G G94C G143U U145G as the variant, how does the “polymerase ribozyme fitness (log ratio)” value read?
Answer: ≤ -4.2

Question: Which “polymerase ribozyme fitness (log ratio)” value does the source give for U13G U15A C51U C96A A121G here?
Answer: -2.76

Question: For U13G U15A G50U U53A G94U, which “polymerase ribozyme fitness (log ratio)” value is on record?
Answer: ≤ -4.2

Question: For U13G U15C A41C A64U G71A C116G G136A, which “polymerase ribozyme fitness (log ratio)” value is on record?
Answer: ≤ -4.2

Source: the RNAGym collection of RNA variant scans (doi:10.1073/pnas.2313332121)
